In article PMC2621013 (Journal of cell science, 2007):

Biological target: the molecule itself

B1: T6BP (construct not stated; self-association, data not shown) (natural protein)
chain: not shown
**Q.** With B1 as the protein, how does the “stoichiometry N” value read?
**A.** 2
